Three substances from PMC3792905, “HIV-1 Vpr Induces the Degradation of ZIP and sZIP, Adaptors of the NuRD Chromatin Remodeling Complex, by Hijacking DCAF1/VprBP” (PLoS ONE, 2013) can be followed below.

Amino acid sequences for entries named in this document (tags omitted).
UniProt P05928: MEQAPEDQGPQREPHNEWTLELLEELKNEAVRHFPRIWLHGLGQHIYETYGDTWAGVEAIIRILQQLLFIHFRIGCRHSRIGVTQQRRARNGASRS
UniProt O14929: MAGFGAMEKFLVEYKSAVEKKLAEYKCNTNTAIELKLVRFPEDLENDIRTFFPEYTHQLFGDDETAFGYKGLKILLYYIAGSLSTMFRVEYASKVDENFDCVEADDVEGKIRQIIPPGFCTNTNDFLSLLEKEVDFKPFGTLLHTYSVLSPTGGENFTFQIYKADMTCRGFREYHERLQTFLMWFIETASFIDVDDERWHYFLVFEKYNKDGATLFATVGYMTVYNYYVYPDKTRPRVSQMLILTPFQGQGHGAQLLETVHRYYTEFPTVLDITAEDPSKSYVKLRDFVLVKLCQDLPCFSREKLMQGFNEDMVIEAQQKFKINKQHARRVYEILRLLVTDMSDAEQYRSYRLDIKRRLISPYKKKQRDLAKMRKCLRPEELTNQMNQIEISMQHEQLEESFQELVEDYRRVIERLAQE
UniProt Q13547: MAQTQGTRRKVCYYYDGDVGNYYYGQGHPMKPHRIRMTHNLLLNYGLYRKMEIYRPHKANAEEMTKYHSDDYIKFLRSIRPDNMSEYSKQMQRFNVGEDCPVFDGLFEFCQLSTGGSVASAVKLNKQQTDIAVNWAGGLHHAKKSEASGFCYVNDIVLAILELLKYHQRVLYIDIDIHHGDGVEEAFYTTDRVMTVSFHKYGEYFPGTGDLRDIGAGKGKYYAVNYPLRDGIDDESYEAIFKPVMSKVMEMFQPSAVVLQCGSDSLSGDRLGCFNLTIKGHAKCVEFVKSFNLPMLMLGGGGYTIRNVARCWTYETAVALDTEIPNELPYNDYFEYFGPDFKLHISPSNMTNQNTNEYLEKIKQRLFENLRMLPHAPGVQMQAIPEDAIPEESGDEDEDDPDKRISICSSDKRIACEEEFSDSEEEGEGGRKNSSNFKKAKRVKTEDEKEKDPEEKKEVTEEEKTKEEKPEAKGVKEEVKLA

In test [1] the target is HA-tagged Vpr from HIV-1 LAI (HIV-1 (LAI)) (UniProt P05928). As to the kind of experiment: co-IP; HEK293T cells transfected with HA-tagged Vpr or empty vector; lysates 48 h post-transfection in SD buffer; anti-HA beads overnight at 4°C, four washes, elution with HA peptide; Western blot of endogenous proteins. On the technique in general: A western blot detects proteins with antibodies after separation by electrophoresis.

A further test has as its target T1, FLAG-ZIP (UniProt Q8N5A5).
T1 sequence: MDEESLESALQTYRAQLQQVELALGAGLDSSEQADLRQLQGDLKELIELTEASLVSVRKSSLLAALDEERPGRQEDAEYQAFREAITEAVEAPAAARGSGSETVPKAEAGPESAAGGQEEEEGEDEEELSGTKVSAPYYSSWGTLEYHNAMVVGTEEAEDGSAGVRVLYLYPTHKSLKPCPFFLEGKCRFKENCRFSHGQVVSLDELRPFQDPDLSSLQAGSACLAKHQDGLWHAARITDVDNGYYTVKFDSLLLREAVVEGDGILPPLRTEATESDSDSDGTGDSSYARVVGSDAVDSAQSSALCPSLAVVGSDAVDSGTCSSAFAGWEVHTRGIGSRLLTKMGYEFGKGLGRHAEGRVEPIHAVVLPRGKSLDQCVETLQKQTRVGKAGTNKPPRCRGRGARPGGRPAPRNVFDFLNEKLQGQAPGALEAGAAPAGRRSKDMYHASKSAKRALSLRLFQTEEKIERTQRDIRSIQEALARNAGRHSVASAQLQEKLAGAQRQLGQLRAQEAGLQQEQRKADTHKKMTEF
As to the kind of experiment: co-IP; HEK293T cells transfected with HA-tagged Vpr and FLAG-tagged ZIP or sZIP; lysates 48 h post-transfection in SD buffer (50mM Tris-HCl pH 7.5, 150mM NaCl, 0.5% Triton X100); anti-FLAG beads overnight at 4°C, four washes, elution with FLAG peptide; Western blot.

Another test deals with T2, FLAG-sZIP (UniProt Q8N5A5).
T2 sequence: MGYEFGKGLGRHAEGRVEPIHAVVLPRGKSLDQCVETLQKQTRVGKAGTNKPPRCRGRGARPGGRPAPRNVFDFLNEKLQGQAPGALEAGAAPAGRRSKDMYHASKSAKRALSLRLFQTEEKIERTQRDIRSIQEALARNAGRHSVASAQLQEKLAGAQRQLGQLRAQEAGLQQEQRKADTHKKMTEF
The description is as above.

These are yes or no findings as the source states them, for the method shown. In cells and extracts the contact can be indirect. Some binding calls cover weakened binding; strength is not graded here. For some assays here: Sequences can lack the tags named with a protein.

For “Histone acetyltransferase 1 (HAT1) (from UniProt O14929 1-419) (enzyme)”, the binding entry (in test [1]; with FLAG-ZIP; with FLAG-sZIP) was “binds” each time.

As to “HA-tagged Vpr from HIV-1 LAI (from UniProt P05928 1-96)”, the binding result with FLAG-ZIP and in the test with FLAG-sZIP was “binds” in each case.

Regarding “histone deacetylase 1 (HDAC1) (from UniProt Q13547 1-482) (enzyme)”, the binding entry in test [1] is on record as “no binding”; with FLAG-ZIP it was “binds”; with FLAG-sZIP, “binds”.
